Measured values published in PubChem BioAssay AID1461 (National Center for Advancing Translational Sciences (NCATS), 2008).
Among all 220,000 compounds or so, about 2,300 (1%) were called active. Inconclusive results, whose numbers are uncertain, are shown with a selection of clear calls. Calls follow the shape of the dose curve; as a rule, active = well fitted inhibition curve with a large enough effect; inconclusive = small, poorly fitted or top-dose-only effect, or effect the other way; inactive = no such curve, though single readings can be large or run the other way. Potencies of inconclusive entries are left out as doubtful fits.

What follows are molecules tested against Neuropeptide S receptor (Homo sapiens) (UniProt Q6W5P4) (assay: qHTS Assay for Antagonists of the Neuropeptide S Receptor: cAMP Signal Transduction). Settings: CHO-NPSR cells, cAMP TR-FRET, antagonist mode; series mostly up to 38.3 µM.
UniProt Q6W5P4, sequence (Q6W5P4 whole entry, looked up): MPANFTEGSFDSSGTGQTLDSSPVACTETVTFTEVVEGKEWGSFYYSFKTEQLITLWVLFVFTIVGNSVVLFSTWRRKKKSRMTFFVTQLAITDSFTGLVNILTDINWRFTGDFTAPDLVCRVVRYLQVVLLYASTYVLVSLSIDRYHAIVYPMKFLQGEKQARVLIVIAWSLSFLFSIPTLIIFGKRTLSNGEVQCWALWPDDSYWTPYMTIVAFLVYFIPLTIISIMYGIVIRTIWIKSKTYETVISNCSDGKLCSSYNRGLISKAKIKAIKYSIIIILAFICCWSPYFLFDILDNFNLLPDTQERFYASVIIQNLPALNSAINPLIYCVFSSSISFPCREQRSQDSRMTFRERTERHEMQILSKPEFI
Also: nearly all actives have a fitted effect of over 50% in size.
Potency is read from the fitted curve at half-maximal effect; tags tell the direction and shape of the fitted curve.

| SMILES | Potency |
| --- | --- |
| CCOC(=O)Cn1cc(/C=N/NC(=O)c2ccc(C#N)cc2F)c2ccccc21 | inconclusive [inhibitor, single point] |
| Fc1ccc(C(c2nnnn2C2CCCC2)N(Cc2ccco2)CC2CCCO2)cc1 (stereo unspecified) | inconclusive [inhibitor, single point] |
| CC1Cc2ccccc2N1C(=O)CN1CCC(n2nnc3cc(C(F)(F)F)ccc32)CC1 (stereo unspecified) | inconclusive [inhibitor, single point] |
| CCCCn1c(SCC(=O)Nc2nnc(C)s2)nc2c1c(=O)n(C)c(=O)n2C | inconclusive [inhibitor, single point] |
| CCCCCn1c(CN2CCN(c3cc(Cl)ccc3C)CC2)nc2c1c(=O)[nH]c(=O)n2C | inconclusive [inhibitor, partial curve] |
| O=C(CCNS(=O)(=O)c1cccc2nonc12)NCCc1ccc(Cl)cc1 | inactive |
| Clc1cccc(Cl)c1CNC1CCCC1 | inconclusive [inhibitor, single point] |
| COC(=O)c1ccccc1NC(=O)CN1CCC(n2nnc3cc(C(F)(F)F)ccc32)CC1 | inactive |
| O=[N+]([O-])c1cc(S(=O)(=O)Nc2cccc(Cl)c2)ccc1N=Nc1c(O)[nH]c2ccccc12 | inconclusive [inhibitor, full curve, poor fit] |
| O=C(NCc1cc(C(F)(F)F)cc(C(F)(F)F)c1)C1CC(c2c(Cl)cccc2Cl)=NO1 (stereo unspecified) | inconclusive [inhibitor, single point] |
| COn1c(SCc2cccc(Cl)c2)nc2ccccc2c1=O | inconclusive [inhibitor, partial curve] |
| Cc1cc(C)nc(N/N=C/C2=C(N3CCOCC3)C(=C\c3ccc(Cl)cc3)/CC2)n1 | inconclusive [inhibitor, single point] |
| COc1ccc(NC(=O)c2c(N)no[n+]2[O-])cc1 | inactive |
| O=C1CC(c2ccccc2)=NN1c1ccc([N+](=O)[O-])cc1 | inconclusive [activator, partial curve] |
| CCCNC[C@H](O)COc1ccccc1C(=O)CCc1ccccc1 | inconclusive [inhibitor, partial curve, poor fit] |
| CCN(CC)c1ccc(-c2nc3cnccn3c2NC2CCCC2)cc1 | inconclusive [inhibitor, single point] |
| Fc1ccccc1C1c2[nH]c3ccccc3c2CCN1Cc1cccn1-c1ncccn1 (stereo unspecified) | inconclusive [activator, partial curve] |
| NC(=O)NC(=O)CC1S/C(=N/N=C/c2ccccc2)NC1=O (stereo unspecified) | inactive |
| COc1ccc2c(c1)c(=O)oc1cc(O)ccc12 | inactive |
| N#Cc1c(-c2ccccc2)no[n+]1[O-] | inconclusive [activator, single point] |
| COCCCN(CCC#N)C(=O)c1c(-c2c(Cl)cccc2Cl)noc1C | inactive |
| COc1ccc(N2CCCn3c2nc2c3c(=O)n(CCCc3ccccc3)c(=O)n2C)cc1 | inconclusive [inhibitor, full curve] |

| SMILES | Potency |
| --- | --- |
| O=C(Nc1ccccc1)C1=C[C@H](c2csc3ccccc23)C[C@H](OCCCCO)O1 | inconclusive [activator, partial curve] |
| CCOC(=O)C1=C(c2ccccc2)OC(N)=C(C#N)C1c1ccc(Cl)s1 (stereo unspecified) | inconclusive [inhibitor, partial curve] |
| CCCNc1nc(-c2ccccc2)c(C(=O)OCC)cc1C#N | inconclusive [activator, single point] |
| COC(=O)c1ccc(-n2nnnc2SCC(=O)Nc2ccccc2C(=O)OC)cc1 | inconclusive [inhibitor, single point] |
| Nc1nonc1C(=O)N/N=C/c1cccc([N+](=O)[O-])c1 | inactive |
| COc1ccc(-c2nc(CN3CCN(c4ccccc4OC)CC3)c(C)o2)cc1 | inactive |
| CCc1ccc(N2C(=O)CC(N3CCC(C(=O)OC)CC3)C2=O)cc1 (stereo unspecified) | inconclusive [inhibitor, partial curve] |
| Cc1ccc(C)c(-n2c(-c3ccc4c(c3)OCO4)n[nH]c2=S)c1 | inconclusive [inhibitor, full curve, poor fit] |
| COc1ccc(NC(=S)N2CCC(N(C)CCN3CCOCC3)CC2)cc1Cl | inactive |
| Cc1cc(C=C2C(=O)c3ccccc3C2=O)c(C)n1-c1ccccc1 | inconclusive [inhibitor, single point] |
| CCCn1c(SCC#N)nc2c(c1=O)C1(CCCC1)Cc1ccccc1-2 | inconclusive [inhibitor, single point] |
| CCOc1cc(/C=C2\C(=O)N(c3ccc(C(N)=O)cc3)N=C2C)ccc1OC(=O)c1cccs1 | inconclusive [inhibitor, single point] |
| Cc1sc2ncn(CCC(=O)O)c(=O)c2c1C | inactive |
| Cc1ccccc1OC1C(=O)N(Cc2ccc3c(c2)OCO3)C1c1sccc1C (stereo unspecified) | inconclusive [inhibitor, partial curve] |
| Cc1cc(C)c(S(=O)(=O)N2CCN(C)CC2)c(C)c1 | inconclusive [inhibitor, single point] |
| O=C(CNCC1CCCO1)Nc1ccc(N2CCCCCC2)cc1 (stereo unspecified) | inconclusive [inhibitor, single point] |
| Cc1ccc(NC(=O)c2ccc(Cl)c(N3C(=O)C=CC3=O)c2)cc1 | inconclusive [inhibitor, single point] |
| O=[N+]([O-])c1cc(/C=N/O)ccc1Sc1ccccc1 | inconclusive [inhibitor, single point] |
| O=C(CNC(=S)N(Cc1ccccc1)Cc1ccccc1F)NCCc1ccc(Cl)cc1 | inconclusive [inhibitor, single point] |
| COc1ccc(-n2c(C)cc(SC)c(C(C)=O)c2=S)cc1 | inconclusive [inhibitor, single point] |
| O=C(CN1CCN(c2ccccn2)CC1)Nc1ccc(OCc2ccccc2)cc1 | inactive |
| NC(=NC(=O)c1ccccc1)N1CCN(C(c2ccccc2)c2ccccc2)CC1 | inconclusive [inhibitor, single point] |

| SMILES | Potency |
| --- | --- |
| CCc1nnc(NC(=O)CSc2nnc(COc3ccccc3C)o2)s1 | inconclusive [inhibitor, single point] |
| CS(=O)(=O)N(CC(=O)Nc1ccccc1Sc1ccccc1)C1CCCCC1 | inconclusive [inhibitor, single point] |
| CN1CCc2nc(SCC(=O)Nc3cccc(F)c3)c(C#N)c(-c3cccs3)c2C1 | inconclusive [inhibitor, partial curve] |
| COc1ccc(-c2n(Cc3ccccc3)c3ccccc3[n+]2Cc2ccccc2)cc1 | active: 10 µM |
| CN(C)c1ccc2c(O)cc(=O)n(C)c2c1 | inconclusive [inhibitor, single point] |
| O=C1Nc2ccc(Br)cc2/C1=C/C(=O)c1ccc2c(c1)OCO2 | inconclusive [inhibitor, single point] |
| Cn1c(-c2nonc2NC(=O)c2ccc(C(C)(C)C)cc2)nc2ccccc21 | inconclusive [inhibitor, single point] |
| C=CCC(Nc1ccccc1)C12C=CC(O1)C(C(=O)OC)=C2C(=O)OC (stereo unspecified) | inconclusive [inhibitor, partial curve] |
| CC1=NN(c2cccc(C(=O)O)c2)C(=O)/C1=C\C=C/c1ccccc1 | active: 7.94 µM |
| CCOc1ccc(C(=O)Nc2ccccc2-c2ccccc2)cc1Cl | inconclusive [inhibitor, partial curve] |
| CCOC(=O)c1c(NC(=O)CCc2ccc(CC)o2)sc(C)c1C | inconclusive [inhibitor, single point] |
| Cc1ccc(S(=O)(=O)c2c(C)nn(C(C)(C)C)c2OC(=O)c2ccc(Br)o2)cc1 | inconclusive [inhibitor, single point] |
| Cc1nn(-c2cc(N3CCCCC3)ccc2[N+](=O)[O-])c(=O)c2ccccc12 | inactive |
| COc1cc(/C=C2/N=C(c3ccccc3F)OC2=O)cc(Cl)c1OS(C)(=O)=O | inconclusive [inhibitor, single point] |
| CCOc1ccccc1NC(=O)c1ccccc1-c1nc(-c2ccccc2)no1 | inconclusive [inhibitor, partial curve] |
| COC(=O)c1ccc(S(=O)(=O)NCCSc2nnc3c4ccccc4n(C)c3n2)cc1 | inconclusive [inhibitor, partial curve] |
| CCSc1nc2c(sc3ccccc32)c(=O)n1C(C)C | inconclusive [inhibitor, single point] |
| O=C1/C(=C/c2ccccn2)SC(=S)N1NS(=O)(=O)c1ccccc1 | inconclusive [inhibitor, single point] |
| O=S(=O)(NC1CC1)c1ccc(S(=O)(=O)N(Cc2ccccn2)C2CCCC2)cc1 | inconclusive [inhibitor, single point] |
| O=C(NCc1ccccc1)C1=C[C@@H](c2coc3ccccc3c2=O)C[C@@H](OCc2ccc(CO)cc2)O1 | inactive |
| COC(=O)CSc1c(-c2ccccc2)c2cc(Cl)ccc2[nH]c1=O | inactive |
| O=C(c1ccc(CSc2ccc(Cl)cc2)cc1)N1CCCC1 | inconclusive [inhibitor, single point] |
